# Assay results from PMC9911399, “Two distinct binding modes provide the RNA-binding protein RbFox with extraordinary sequence specificity”.
# Where a chain is given by its changes, count along the chain named. The list shows a part of the results.
# B1: UAGGCAA (DNA:RNA)
# RNA: GGGAGACCGGAAUUCAGAUUGUCCUAGGCAAUUAAAUCCCGUCGUAGCCACCA
# DNA 1: CAATCTGAATTCCGGTCTCCC
# DNA 2: TGGTGGCTACGACGGGATT
# B2: CCCGCGA (DNA:RNA)
# RNA: B1 RNA with U25C, A26C, G27C, A30G
# DNA 1: CAATCTGAATTCCGGTCTCCC
# DNA 2: TGGTGGCTACGACGGGATT
# B3: GCAGGUA (DNA:RNA)
# RNA: B1 RNA with U25G, A26C, G27A, C29G, A30U
# DNA 1: CAATCTGAATTCCGGTCTCCC
# DNA 2: TGGTGGCTACGACGGGATT
# B4: ACGGGAC (DNA:RNA)
# RNA: B1 RNA with U25A, A26C, C29G, A31C
# DNA 1: CAATCTGAATTCCGGTCTCCC
# DNA 2: TGGTGGCTACGACGGGATT
# B5: CAGCAUU (DNA:RNA)
# RNA: B1 RNA with U25C, G28C, C29A, A30U, A31U
# DNA 1: CAATCTGAATTCCGGTCTCCC
# DNA 2: TGGTGGCTACGACGGGATT
# B6: ACUUUUC (DNA:RNA)
# RNA: GGGAGACCGGAAUUCAGAUUGUCCACUUUUCUUAAAUCCCGUCGUAGCCACCA
# DNA 1: CAATCTGAATTCCGGTCTCCC
# DNA 2: TGGTGGCTACGACGGGATT
# B7: UCCGGAG (DNA:RNA)
# RNA: B1 RNA with A26C, G27C, C29G, A31G
# DNA 1: CAATCTGAATTCCGGTCTCCC
# DNA 2: TGGTGGCTACGACGGGATT
# B8: GAACCGC (DNA:RNA)
# RNA: B1 RNA with U25G, G27A, G28C, A30G, A31C
# DNA 1: CAATCTGAATTCCGGTCTCCC
# DNA 2: TGGTGGCTACGACGGGATT
# B9: AAAAUCG (DNA:RNA)
# RNA: B6 RNA with C26A, U27A, U28A, U30C, C31G
# DNA 1: CAATCTGAATTCCGGTCTCCC
# DNA 2: TGGTGGCTACGACGGGATT
# B10: GAGCGGG (DNA:RNA)
# RNA: B1 RNA with U25G, G28C, C29G, A30G, A31G
# DNA 1: CAATCTGAATTCCGGTCTCCC
# DNA 2: TGGTGGCTACGACGGGATT
# B11: UGUCAUC (DNA:RNA)
# RNA: B6 RNA with A25U, C26G, U28C, U29A
# DNA 1: CAATCTGAATTCCGGTCTCCC
# DNA 2: TGGTGGCTACGACGGGATT
# B12: GAAACGA (DNA:RNA)
# RNA: B1 RNA with U25G, G27A, G28A, A30G
# DNA 1: CAATCTGAATTCCGGTCTCCC
# DNA 2: TGGTGGCTACGACGGGATT
# B13: GGCCGUG (DNA:RNA)
# RNA: B6 RNA with A25G, C26G, U27C, U28C, U29G, C31G
# DNA 1: CAATCTGAATTCCGGTCTCCC
# DNA 2: TGGTGGCTACGACGGGATT
# B14: GAGUUGC (DNA:RNA)
# RNA: B6 RNA with A25G, C26A, U27G, U30G
# DNA 1: CAATCTGAATTCCGGTCTCCC
# DNA 2: TGGTGGCTACGACGGGATT
# B15: ACAGGAA (DNA:RNA)
# RNA: B1 RNA with U25A, A26C, G27A, C29G
# DNA 1: CAATCTGAATTCCGGTCTCCC
# DNA 2: TGGTGGCTACGACGGGATT
# B16: UCACCCC (DNA:RNA)
# RNA: B6 RNA with A25U, U27A, U28C, U29C, U30C
# DNA 1: CAATCTGAATTCCGGTCTCCC
# DNA 2: TGGTGGCTACGACGGGATT
# B17: AUUAUUA (DNA:RNA)
# RNA: B6 RNA with C26U, U28A, C31A
# DNA 1: CAATCTGAATTCCGGTCTCCC
# DNA 2: TGGTGGCTACGACGGGATT
# B18: UCGGUCG (DNA:RNA)
# RNA: B1 RNA with A26C, C29U, A30C, A31G
# DNA 1: CAATCTGAATTCCGGTCTCCC
# DNA 2: TGGTGGCTACGACGGGATT
# B19: CCACAUG (DNA:RNA)
# RNA: B6 RNA with A25C, U27A, U28C, U29A, C31G
# DNA 1: CAATCTGAATTCCGGTCTCCC
# DNA 2: TGGTGGCTACGACGGGATT
# B20: GCUACAG (DNA:RNA)
# RNA: B6 RNA with A25G, U28A, U29C, U30A, C31G
# DNA 1: CAATCTGAATTCCGGTCTCCC
# DNA 2: TGGTGGCTACGACGGGATT
# B21: UUCUUAC (DNA:RNA)
# RNA: B6 RNA with A25U, C26U, U27C, U30A
# DNA 1: CAATCTGAATTCCGGTCTCCC
# DNA 2: TGGTGGCTACGACGGGATT
# B22: UUCCCAG (DNA:RNA)
# RNA: B1 RNA with A26U, G27C, G28C, A31G
# DNA 1: CAATCTGAATTCCGGTCTCCC
# DNA 2: TGGTGGCTACGACGGGATT
# B23: GGGUACG (DNA:RNA)
# RNA: B6 RNA with A25G, C26G, U27G, U29A, U30C, C31G
# DNA 1: CAATCTGAATTCCGGTCTCCC
# DNA 2: TGGTGGCTACGACGGGATT
# B24: UCUUCAC (DNA:RNA)
# RNA: B6 RNA with A25U, U29C, U30A
# DNA 1: CAATCTGAATTCCGGTCTCCC
# DNA 2: TGGTGGCTACGACGGGATT
# B25: AGAUGUG (DNA:RNA)
# RNA: B6 RNA with C26G, U27A, U29G, C31G
# DNA 1: CAATCTGAATTCCGGTCTCCC
# DNA 2: TGGTGGCTACGACGGGATT
# B26: AUAAUGA (DNA:RNA)
# RNA: B6 RNA with C26U, U27A, U28A, U30G, C31A
# DNA 1: CAATCTGAATTCCGGTCTCCC
# DNA 2: TGGTGGCTACGACGGGATT
# B27: CUAACAG (DNA:RNA)
# RNA: B1 RNA with U25C, A26U, G27A, G28A, A31G
# DNA 1: CAATCTGAATTCCGGTCTCCC
# DNA 2: TGGTGGCTACGACGGGATT
# B28: CUGCCUA (DNA:RNA)
# RNA: B1 RNA with U25C, A26U, G28C, A30U
# DNA 1: CAATCTGAATTCCGGTCTCCC
# DNA 2: TGGTGGCTACGACGGGATT
# B29: CUGGUUG (DNA:RNA)
# RNA: B6 RNA with A25C, C26U, U27G, U28G, C31G
# DNA 1: CAATCTGAATTCCGGTCTCCC
# DNA 2: TGGTGGCTACGACGGGATT
# B30: ACUAUGA (DNA:RNA)
# RNA: B6 RNA with U28A, U30G, C31A
# DNA 1: CAATCTGAATTCCGGTCTCCC
# DNA 2: TGGTGGCTACGACGGGATT
# B31: UUCAUUC (DNA:RNA)
# RNA: B6 RNA with A25U, C26U, U27C, U28A
# DNA 1: CAATCTGAATTCCGGTCTCCC
# DNA 2: TGGTGGCTACGACGGGATT
# Target: T1, RBFOX1 RRM RbFoxmut (Fox-RRM*) (Homo sapiens, UniProt Q9NWB1 109-208, R118D;E147R;N151S;E152T)
# T1 sequence: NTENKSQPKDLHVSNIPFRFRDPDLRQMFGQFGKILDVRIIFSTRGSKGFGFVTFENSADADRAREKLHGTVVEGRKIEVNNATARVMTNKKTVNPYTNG
# Test: EMSA; HiTS-Eq, 1 nM pool, 10 min; buffer printed only for the single-RNA assays: 10 mM Tris pH 7.5, 150 mM NaCl, 3.4 mM EDTA, 0.001% NP-40, 30 C
# Conditions: tags: His6 N-terminal (pET28a); label: 5' 32P
# Method in brief: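 Relative association constants, normalised to the cognate motif, were derived by comparing read counts of each RNA species with those of the control reaction. The RNA sequenced was the free fraction, separated by 8% native PAGE after a 10 min equilibration in 50 µL of 1 nM 5′-radiolabelled RNA (7 randomized nucleotides) with increasing concentrations of purified wild-type or mutant RbFox RRM.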
row,Binder,binding signal
1,B1,0.0678 KA relative to UGCAUGU
2,B2,0.0823 KA relative to UGCAUGU
3,B3,0.139 KA relative to UGCAUGU
4,B4,0.107 KA relative to UGCAUGU
5,B5,0.107 KA relative to UGCAUGU
6,B6,0.0615 KA relative to UGCAUGU
7,B7,0.0575 KA relative to UGCAUGU
8,B8,0.103 KA relative to UGCAUGU
9,B9,0.0573 KA relative to UGCAUGU
10,B10,0.0902 KA relative to UGCAUGU
11,B11,0.183 KA relative to UGCAUGU
12,B12,0.0502 KA relative to UGCAUGU
13,B13,0.18 KA relative to UGCAUGU
14,B14,0.109 KA relative to UGCAUGU
15,B15,0.129 KA relative to UGCAUGU
16,B16,0.0883 KA relative to UGCAUGU

row,Binder,binding signal
1,B17,0.154 KA relative to UGCAUGU
2,B18,0.159 KA relative to UGCAUGU
3,B19,0.0793 KA relative to UGCAUGU
4,B20,0.0907 KA relative to UGCAUGU
5,B21,0.0979 KA relative to UGCAUGU
6,B22,0.103 KA relative to UGCAUGU
7,B23,0.347 KA relative to UGCAUGU
8,B24,0.089 KA relative to UGCAUGU
9,B25,0.167 KA relative to UGCAUGU
10,B26,0.13 KA relative to UGCAUGU
11,B27,0.051 KA relative to UGCAUGU
12,B28,0.0997 KA relative to UGCAUGU
13,B29,0.458 KA relative to UGCAUGU
14,B30,0.134 KA relative to UGCAUGU
15,B31,0.0736 KA relative to UGCAUGU
